From article PMC3675137
Where a chain is given by its changes, count along the chain named. These are yes or no findings as the source states them, for the method shown. In cells and extracts the contact can be indirect. Some entries that bind do so weakly or less than the wild type. For some assays here: Tags and fused reporters may be left off the sequences shown.

The chains behind the UniProt entries cited, without tags or fusion partners. Where a name states a change or a piece, a line headed by the entry shows the natural chain unless it says otherwise.
UniProt P48432: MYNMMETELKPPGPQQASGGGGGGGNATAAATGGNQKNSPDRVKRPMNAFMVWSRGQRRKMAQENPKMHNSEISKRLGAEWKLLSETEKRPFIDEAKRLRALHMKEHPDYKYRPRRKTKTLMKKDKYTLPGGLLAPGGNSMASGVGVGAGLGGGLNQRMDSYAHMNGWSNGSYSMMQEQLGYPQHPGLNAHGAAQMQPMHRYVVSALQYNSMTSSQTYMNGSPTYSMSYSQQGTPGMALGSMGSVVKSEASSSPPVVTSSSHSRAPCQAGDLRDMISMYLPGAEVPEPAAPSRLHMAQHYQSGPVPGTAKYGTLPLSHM

What was measured:
Myc-SATB1 [1] = target: T1, Myc-SATB1 (UniProt Q01826); assay: co-IP; tagged proteins co-expressed in HEK293T or HEK293A cells; lysis in modified RIPA buffer (50 mM Tris pH 7.4, 150 mM NaCl, 1 mM EDTA, 1% Nonidet P-40, 0.25% Na-deoxycholate); antibody and protein G-agarose overnight at 4°C; Western blot; for Myc-SATB1/Flag-Sox2 also serum-starved cells with DMSO or with LY294002 plus IGF-1
T1 sequence: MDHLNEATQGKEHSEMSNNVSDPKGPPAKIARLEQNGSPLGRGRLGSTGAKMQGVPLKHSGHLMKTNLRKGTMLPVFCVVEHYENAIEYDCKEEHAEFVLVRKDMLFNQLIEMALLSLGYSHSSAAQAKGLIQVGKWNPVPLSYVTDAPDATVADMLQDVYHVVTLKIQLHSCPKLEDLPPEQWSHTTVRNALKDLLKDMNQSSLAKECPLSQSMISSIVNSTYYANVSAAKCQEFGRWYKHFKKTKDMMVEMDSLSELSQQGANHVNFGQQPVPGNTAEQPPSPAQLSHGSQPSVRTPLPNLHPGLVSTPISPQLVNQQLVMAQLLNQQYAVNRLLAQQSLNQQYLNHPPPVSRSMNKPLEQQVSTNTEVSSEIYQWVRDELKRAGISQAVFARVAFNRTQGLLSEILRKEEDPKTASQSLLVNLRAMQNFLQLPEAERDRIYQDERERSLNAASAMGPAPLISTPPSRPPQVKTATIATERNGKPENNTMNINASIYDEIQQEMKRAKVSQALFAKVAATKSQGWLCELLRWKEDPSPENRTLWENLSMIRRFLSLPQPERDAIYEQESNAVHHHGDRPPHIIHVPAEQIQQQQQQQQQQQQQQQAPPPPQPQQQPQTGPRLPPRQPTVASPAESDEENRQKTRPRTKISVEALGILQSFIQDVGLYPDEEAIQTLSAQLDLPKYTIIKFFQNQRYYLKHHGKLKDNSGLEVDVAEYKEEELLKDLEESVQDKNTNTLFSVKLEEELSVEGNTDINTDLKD

Myc-SATB1S47A = target: T2, Myc-SATB1S47A (UniProt Q01826); assay: as above
T2 sequence: T1 sequence with S47A

Myc-SATB1S47D = target: T3, Myc-SATB1S47D (UniProt Q01826); assay: as above
T3 sequence: T1 sequence with S47D

Myc-SATB1 [2] = target: T1, Myc-SATB1; assay: co-IP; Myc-SATB1 and Flag-Sox2 co-transfected, cells serum starved and treated with the PI3K inhibitor LY294002
GST-SATB1 496–763 = target: T4, GST-SATB1 496–763 (UniProt Q01826); assay: pull-down; GST or GST fusion proteins on glutathione-Sepharose beads incubated with precleared lysates of transfected HEK293T cells (modified RIPA buffer), 4°C, 2 h; immunoblot; only the target purified
T4 sequence: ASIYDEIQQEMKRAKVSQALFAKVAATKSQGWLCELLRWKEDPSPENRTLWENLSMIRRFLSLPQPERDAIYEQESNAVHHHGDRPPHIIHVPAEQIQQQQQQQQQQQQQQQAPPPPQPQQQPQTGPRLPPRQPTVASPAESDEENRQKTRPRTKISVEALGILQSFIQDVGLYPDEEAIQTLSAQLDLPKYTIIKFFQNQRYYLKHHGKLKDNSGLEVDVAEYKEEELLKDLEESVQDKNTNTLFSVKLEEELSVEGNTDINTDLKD

GST-SATB1 52–495 = target: T5, GST-SATB1 52–495 (UniProt Q01826); assay: as above
T5 sequence: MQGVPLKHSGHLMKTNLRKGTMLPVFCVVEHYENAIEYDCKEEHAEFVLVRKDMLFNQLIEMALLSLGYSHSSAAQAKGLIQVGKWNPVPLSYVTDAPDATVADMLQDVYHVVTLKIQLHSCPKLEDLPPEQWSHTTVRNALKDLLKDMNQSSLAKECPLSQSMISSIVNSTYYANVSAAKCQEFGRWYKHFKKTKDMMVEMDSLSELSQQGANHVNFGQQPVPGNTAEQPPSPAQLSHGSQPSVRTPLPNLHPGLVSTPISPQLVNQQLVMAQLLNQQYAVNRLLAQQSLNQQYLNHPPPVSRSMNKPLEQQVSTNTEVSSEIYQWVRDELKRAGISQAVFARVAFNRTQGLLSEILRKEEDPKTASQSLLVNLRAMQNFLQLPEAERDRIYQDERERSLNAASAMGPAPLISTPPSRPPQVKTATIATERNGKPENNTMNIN

GST-SATB1 1–204 = target: T6, GST-SATB1 1–204 (UniProt Q01826); assay: as above
T6 sequence: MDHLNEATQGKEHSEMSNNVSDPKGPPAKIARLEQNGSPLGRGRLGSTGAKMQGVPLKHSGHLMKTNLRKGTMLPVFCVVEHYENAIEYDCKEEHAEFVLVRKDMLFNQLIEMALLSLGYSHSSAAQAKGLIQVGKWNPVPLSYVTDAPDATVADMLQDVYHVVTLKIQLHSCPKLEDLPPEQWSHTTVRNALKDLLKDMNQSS

[3] = target: T7, endogenous SATB1 (mouse (endogenous in F9)) (UniProt Q60611); assay: co-IP; endogenous SATB1 immunoprecipitated from F9 cell lysates; blots with anti-SATB1 and anti-Sox2
T7 sequence: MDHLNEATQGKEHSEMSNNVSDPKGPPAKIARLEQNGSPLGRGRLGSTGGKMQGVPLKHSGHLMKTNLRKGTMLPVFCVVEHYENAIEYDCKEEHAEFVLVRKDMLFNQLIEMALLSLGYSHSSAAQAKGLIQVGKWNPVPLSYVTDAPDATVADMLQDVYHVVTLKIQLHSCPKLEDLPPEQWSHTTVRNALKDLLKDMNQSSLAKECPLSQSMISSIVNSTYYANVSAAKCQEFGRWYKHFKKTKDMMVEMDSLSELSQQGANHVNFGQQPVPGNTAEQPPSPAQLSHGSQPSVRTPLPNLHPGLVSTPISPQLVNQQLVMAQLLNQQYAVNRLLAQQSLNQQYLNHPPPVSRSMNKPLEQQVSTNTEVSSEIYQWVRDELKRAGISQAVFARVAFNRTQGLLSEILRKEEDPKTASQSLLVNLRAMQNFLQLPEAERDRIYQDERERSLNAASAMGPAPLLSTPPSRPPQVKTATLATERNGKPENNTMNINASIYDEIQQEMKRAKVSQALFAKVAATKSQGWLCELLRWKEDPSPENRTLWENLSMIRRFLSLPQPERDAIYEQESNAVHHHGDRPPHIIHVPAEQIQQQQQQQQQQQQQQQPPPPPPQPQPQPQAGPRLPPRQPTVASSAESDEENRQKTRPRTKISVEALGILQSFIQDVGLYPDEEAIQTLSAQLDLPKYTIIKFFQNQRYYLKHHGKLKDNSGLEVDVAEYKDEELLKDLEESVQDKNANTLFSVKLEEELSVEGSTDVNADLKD

Row | Substance | binding (Myc-SATB1 [1]) | other results
1 | Flag-GFP-tagged Sox2 1–111 (from UniProt P48432 1-111) (domain or fragment) | binds | –
2 | Flag-GFP-tagged Sox2 112–319 (from UniProt P48432 112-319) (domain or fragment) | binds | –
3 | Flag-GFP-tagged Sox2 203–319 (from UniProt P48432 203-319) (domain or fragment) | no binding | –
4 | Flag-GFP-tagged Sox2 (full-length) (from UniProt P48432 1-319) | binds | binding (Myc-SATB1S47A): binds; binding (Myc-SATB1S47D): binds
5 | Flag-Sox2 (from UniProt P48432 1-319) | binds | binding (Myc-SATB1 [2]): binds weakly
6 | Sox2 (prey of the GST-SATB1 pull-down) (from UniProt P48432 1-319) | – | binding (GST-SATB1 496–763): no binding; binding (GST-SATB1 52–495): binds; binding (GST-SATB1 1–204): no binding
7 | endogenous Sox2 (from UniProt P48432 1-319) | – | binding [3]: binds

The next lines start with results.

Row | binding (Myc-SATB1 [1]) | Substance | other results
8 | binds | Flag-GFP-tagged Sox2 1–202 (from UniProt P48432 1-202) (domain or fragment) | –
9 | binds | Flag-GFP-tagged Sox2 112–202 (from UniProt P48432 112-202) (domain or fragment) | –
